In general, % Inhibition refers to the drop in the measured response relative to a control, in per cent.

Screen size: about 150,000 compounds; about 540 (0.36%) showed an effect of 50% or more. The list shows a part of the results.

The test has as its system Plasmodium falciparum. As to the kind of experiment: Primary screen in NF54 nanoGlo assay, in single point, at 2uM, 72h; a lower Z score goes with more inhibition. Type of test: functional, Erythrocyte. Particulars: timepoint 72 hour.
As for `CN1C(=O)c2ccc(-c3cnn(C)c3)cc2O[C@H]2CN(Cc3nccs3)C[C@H]21`, the “% Inhibition” value came to 19% and the Z score was -2.21.
As for `C[C@H]1CCN(CCc2ccccc2F)CCS1(=O)=O`, the “% Inhibition” value is reported as -5% and the Z score stood at 0.47.
For `Cc1cc(C)c(CNCc2ccc(N3CCCC3=O)cc2)cc1C`, in that order: -4% and 0.39.
`CN(C(=O)CCn1cnc2ccccc2c1=O)C1CCCC1`: the “% Inhibition” value was -17% and the Z score was 2.81.
As for `CC(C)C(=O)N1CCC(NC2CC(C)(C)Cc3occc32)C1` (configuration not stated), the “% Inhibition” value is listed as 2% and the Z score was -0.2.
For the compound `CC(C)(C)OC(=O)N1CCC(c2ccn(CC3(CC#N)CC3)n2)CC1`, the “% Inhibition” value is 8% and the Z score is on record as -0.97.
For `COCCN(Cc1nc2ccc(C)cc2[nH]1)CC1CC1`, the “% Inhibition” value was -12% and the Z score amounted to 2.15.
For `COc1ccc(CN2CC[C@H](CS(C)(=O)=O)C2)cc1OC1CC1`, in that order: -4% and 0.88.
For `CCOC(=O)C1(C[C@H]2CCCCO2)CCN(S(=O)(=O)c2ccc(C)cc2C)CC1` the same measures were -33% and 3.58.
Take `CCCN(CCC)S(=O)(=O)c1cccs1`: the “% Inhibition” value is reported as 10% and the Z score is listed as -1.83.
As for `Cc1cccc(-c2ccc(C(=O)NCc3nncn3C)c(=O)[nH]2)c1`, the “% Inhibition” value turned out to be 2% and the Z score is listed as -0.24.
As for `Cc1noc2ncnc(N3Cc4ccccc4[C@@H](O)C3)c12`, the “% Inhibition” value is -4% and the Z score is listed as 0.48.
`C[C@@H](C(=O)NC1CCCC1)N(C)Cc1ccc2c(c1)OCCO2`: the “% Inhibition” value turned out to be 1% and the Z score is on record as -0.15.
For the compound `Cc1cncc(NC(=O)C(=O)NCC2CCC(C)(C)CC2)c1`, the “% Inhibition” value was -12% and the Z score was determined as 1.21.
For `CC[C@@H](CC#N)NC(=O)c1ccc(F)cc1NC(C)=O` the same measures were -11% and 1.52.
On to `O=C(COCc1ccccc1Cl)N1CCC[C@H]1c1ccncc1`, for which the “% Inhibition” value is on record as -4% and the Z score was 0.49.
As for `CNc1nc(C)cc(C(=O)NC2CC3CC3C2)n1` (configuration not stated), the “% Inhibition” value was 3% and the Z score is -0.38.
Take `C[C@H]1OCC(=O)N(Cc2ccccc2)[C@@H]1c1nc(-c2nnc[nH]2)no1`: the “% Inhibition” value was -8% and the Z score is 1.12.
On to `COC1CCC(N(C)C(=O)c2coc(C3CCOCC3)n2)CC1` (configuration not stated), for which the “% Inhibition” value was -23% and the Z score was 3.51.
Take `Cc1cccc(-n2ncnc2CNC(=O)N(C)C)n1`: the “% Inhibition” value is given as -9% and the Z score turned out to be 1.1.
With `COc1cc(OC)c(NC(=O)CN2C[C@H]3CCN(C)[C@H]3C2)cc1Cl`, the “% Inhibition” value was -2% and the Z score is recorded as 0.38.
Regarding `COc1cc([C@H]2CC(=O)Nc3c2cnn3Cc2ccco2)c(OC)c2c1OCCO2`, the “% Inhibition” value worked out at 9% and the Z score is -1.07.
With `CCc1nc(C)c(C(=O)NCc2ccc(Cl)s2)o1`, the “% Inhibition” value was -10% and the Z score is reported as 1.23.
For `Cn1cc(Cl)cc1C(=O)N1CC2(CCC2)[C@H]1c1ccco1` the same measures were -6% and 1.16.
On to `CCCOCC(=O)N1CCC(c2nnc(Cn3ccnc3C)n2C)CC1`, for which the “% Inhibition” value is 2% and the Z score is -0.25.
For `CC(=O)c1ccc(F)c(-c2cc(C)cc3c2O[C@@H](CNC(=O)Cn2nc(C)nc2C)C3)c1` the same measures were 5% and -0.85.
`COCCN1C(=O)CC(CC(=O)N2CCN(C)C[C@@H]2C(C)C)(c2cccc(OC)c2)C1=O` (some centres not stated): the “% Inhibition” value is -4% and the Z score was 0.7.
For `O=C(CCc1c[nH]c2ccccc12)Nc1nc[nH]n1` the same measures were -6% and 0.83.
As for `C=CCN=C(NCCNC(=O)C(C)C)NCc1ccccc1`, the “% Inhibition” value amounted to 3% and the Z score is recorded as -0.54.
For `Cc1ccc(OCC2c3ccsc3CCN2C(=O)CN(CC2CCCO2)C(=O)c2ccccc2)c(C)c1` (configuration not stated) the same measures were -9% and 1.1.
As to `COc1ccccc1-n1c(=O)n(Cc2ccccc2)c(=O)c2c1ncn2Cc1cccc(F)c1`, the “% Inhibition” value turned out to be 0% and the Z score turned out to be 0.02.
Take `O=C(Cn1ncccc1=O)N1CCN(c2ccc(-c3ccco3)nn2)CC1`: the “% Inhibition” value is -16% and the Z score is listed as 2.41.
For `COc1ccc(N2CCN(C(=O)C3OC(C)CC3C)CC2)nc1` (configuration not stated), the “% Inhibition” value is -8% and the Z score worked out at 1.31.
`Cc1nc(C(=O)N(C)C)ccc1C(=O)O[C@@H](C)c1cccc(F)c1`: the “% Inhibition” value is -6% and the Z score was found to be 0.83.
Take `Cc1c(C)n(Cc2ccccc2)c2ccc(C(=O)NC3CCN(Cc4ccccc4)CC3)cc12`: the “% Inhibition” value is reported as 4% and the Z score is -0.54.
For the compound `Cc1cc(CNC(=O)c2ccn(C(F)F)n2)no1`, the “% Inhibition” value is recorded as -8% and the Z score is 1.43.
On to `COCCc1ccc(OS(=O)(=O)c2ccc3c(c2)CCC(=O)N3)cc1`, for which the “% Inhibition” value was -15% and the Z score was found to be 2.79.
Regarding `CS(=O)(=O)c1cnc2nc3ccccc3n2c1-c1ccccc1`, the “% Inhibition” value was -16% and the Z score turned out to be 2.14.
As for `CCOC(=O)C(NC(=O)c1cnn(C)c1)C(=O)OCC`, the “% Inhibition” value was -6% and the Z score amounted to 0.89.
Consider `Cc1ccsc1C(=O)N[C@@H](CCO)C(C)(C)C`, for which the “% Inhibition” value is on record as -6% and the Z score is on record as 1.1.
For `CCn1ccc2oc(C)c(C(=O)NC3CCN(Cc4ccccc4)CC3)c2c1=O` the same measures were -4% and 0.6.
For the compound `O=C(Nc1nc(-c2cccc3ccccc23)cs1)c1cccc(F)c1`, the “% Inhibition” value was -7% and the Z score is listed as 1.24.
With `Cn1ncnc1C1(O)CCN(C(=O)OCC2CCCCC2)CC1`, the “% Inhibition” value is given as -6% and the Z score is 0.98.
Consider `CN1CCOC(CNCC(O)c2ccc(Br)cc2)C1` (configuration not stated), for which the “% Inhibition” value is -5% and the Z score is 1.06.
For `COCc1sccc1C(=O)N[C@@](C)(Cc1ccccc1)C1CC1` the same measures were -20% and 2.87.
As to `Cc1nn(C2c3ccccc3Oc3ccccc32)c(=S)s1`, the “% Inhibition” value amounted to 0% and the Z score amounted to 0.09.
`CN=C(NCc1ccnn1C)N1CCc2ccccc2C1`: the “% Inhibition” value is 3% and the Z score was -0.37.
For `Cc1cc(NS(=O)(=O)c2cccs2)n(-c2ccncc2)n1` the same measures were 37% and -4.23.
For `Cc1cc(C(=O)NC[C@]2(O)CCCc3occc32)no1`, in that order: 14% and -1.79.
On to `O=C(NCCN1CC2CCC(C1)O2)c1nnc(-c2ccc(F)cn2)o1`, for which the “% Inhibition” value is recorded as -3% and the Z score is listed as 0.32.
For `CC(C)(O)CNC(=O)Cc1ccc(F)cc1`, in that order: -7% and 0.86.
With `CCN(CCN1CCCC1)Cc1cccc2ncccc12`, the “% Inhibition” value came to 12% and the Z score is listed as -2.2.
With `C=C1CCC(C(=O)N2CCO[C@H]3CCC[C@H]32)CC1`, the “% Inhibition” value came to 5% and the Z score is listed as -0.65.
For `CC(C)(C)n1cc([C@H]2N(C(=O)c3cncc(Cl)c3)CC23CCOCC3)cn1`, in that order: -17% and 2.81.
`N#Cc1c(N)cccc1OC(F)(F)F`: the “% Inhibition” value is given as -8% and the Z score is 1.25.
For `O=C(NCCN1C(=O)CCC1=O)c1csc(-c2cccs2)n1`, in that order: -22% and 2.05.

Source of the values: ChEMBL document CHEMBL4888484, “Replenishing the malaria drug discovery pipeline: Screening and hit evaluation of the MMV Hit Generation Library 1 (HGL1) against asexual blood stage Plasmodium falciparum ,using a nano luciferase reporter read-out” (2022).
